Reference: PubChem BioAssay AID1476 (National Center for Advancing Translational Sciences (NCATS), 2009)
About 4,500 (2.2%) of roughly 200,000 compounds were called active. Inconclusive results, whose numbers are uncertain, are shown with a selection of clear calls. Calls come from the whole dose curve; as a rule, active = well fitted inhibition curve with a large enough effect; inconclusive = small, poorly fitted or top-dose-only effect, or effect the other way; inactive = flat fitted curve, though single readings scatter. Potencies beside an inconclusive call are fits to weak or partial responses and may not hold up.

The compounds below were run against Cruzipain (Trypanosoma cruzi) (UniProt P25779) (assay: qHTS Assay for Promiscuous and Specific Inhibitors of Cruzain (without detergent)). Settings: purified cruzain, Z-FR-AMC fluorescence, no detergent.
UniProt P25779, sequence (P25779 whole entry, looked up): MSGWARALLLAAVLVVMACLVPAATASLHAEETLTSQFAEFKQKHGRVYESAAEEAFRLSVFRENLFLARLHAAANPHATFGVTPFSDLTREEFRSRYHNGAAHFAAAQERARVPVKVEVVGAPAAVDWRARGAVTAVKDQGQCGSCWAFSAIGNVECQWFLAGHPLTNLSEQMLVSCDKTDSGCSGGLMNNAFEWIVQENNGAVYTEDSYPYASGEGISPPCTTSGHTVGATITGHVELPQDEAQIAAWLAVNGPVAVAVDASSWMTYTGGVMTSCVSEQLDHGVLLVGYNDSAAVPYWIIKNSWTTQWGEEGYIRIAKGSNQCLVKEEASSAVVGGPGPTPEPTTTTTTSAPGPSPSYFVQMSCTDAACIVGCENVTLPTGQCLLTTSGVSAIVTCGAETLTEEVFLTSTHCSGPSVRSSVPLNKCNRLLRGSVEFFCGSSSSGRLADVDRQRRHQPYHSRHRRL
Outline: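 Purified cruzain at 1.5 nM, pre-incubated 15 min with compound at room temperature in 100 mM sodium acetate pH 5.5, 5 mM DTT, 0.00005% Triton X-100. Reaction started with 2 uM Z-FR-AMC; AMC fluorescence increase over 60 s gives rate.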
Note: nearly all actives have a fitted effect of over 40% in size.
Potency is the fitted concentration of half-maximal effect; tags give direction and shape of the fitted curve.
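Throughout, for max response, negative = inhibition: plate controls were enzyme without inhibitor for no effect and buffer without enzyme for full effect.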

| Structure (SMILES) | Potency | max response, negative = inhibition |
| --- | --- | --- |
| Cc1ccccc1NS(=O)(=O)c1ccc2[nH]c3c(c2c1)CCCCC3 | inconclusive: 31.6 µM [inhibitor, single point] | – |
| COCCCNC(=O)c1ccc(Cn2c(=O)c3ccccc3n(Cc3ccccc3C#N)c2=O)cc1 | inconclusive: 31.6 µM [activator, partial curve] | – |
| CCCCn1c(NC(=O)c2ccccc2)c(C#N)c2nc3ccccc3nc21 | inconclusive: 39.8 µM [activator, single point] | – |
| O=C(O)c1ccc(COc2ccccc2/C=C2/NC(=O)N(c3cccc(Cl)c3)C2=O)cc1 | inconclusive: 25.1 µM [inhibitor, single point] | – |
| CCOC(=O)c1sc(NC(=O)c2cccs2)nc1C | inconclusive: 39.8 µM [inhibitor, single point] | – |
| COc1ccc(/C=C/C(=O)Nc2ccc(Cl)c(Cl)c2)cc1 | inconclusive: 39.8 µM [inhibitor, single point] | – |
| CCOC(=O)C1=C(C)N=c2s/c(=C\c3ccc(OCC(=O)O)cc3)c(=O)n2C1c1ccc(OC(C)C)cc1 (stereo not drawn) | inconclusive: 6.31 µM [activator, single point] | – |
| CCc1ccc(C(=O)NC(Cc2c[nH]c3ccccc23)C(=O)OCC(=O)c2ccc(Br)cc2)cc1 (stereo not drawn) | active: 15.8 µM | – |
| CCOC(=O)c1cnc2ccccc2c1Nc1cccc(OC)c1 | – | inactive: -6.77% |
| COc1ccccc1N1CCN(C(=O)c2cnc(N3CCCCC3)c3ccccc23)CC1 | inconclusive: 31.6 µM [activator, single point] | – |
| O=C(Nc1ccc2c(c1)CCC2)c1cccc(S(=O)(=O)Nc2ccccc2Cl)c1 | – | inactive: -19.6% |
| Cc1ccc2oc(-c3cccc(NC(=O)c4sc5c([N+](=O)[O-])cccc5c4Cl)c3)nc2c1 | – | inactive: -0.0182% |
| Cc1onc(-c2ccccc2Cl)c1C(=O)Nc1nc2c(s1)CCCC2 | active: 25.1 µM | – |
| C[n+]1ccc(/C=C/c2ccc(Br)cc2)cc1 | inconclusive: 39.8 µM [inhibitor, single point] | – |
| Cc1ccc(Cl)cc1N1CCN(C(=O)CCCCCn2c(=O)[nH]c3ccccc3c2=O)CC1 | – | inactive: 20.9% |
| CC(=O)N(C)C(c1ccc(N(C)C)cc1)c1nnnn1-c1c(C)cccc1C (stereo not drawn) | inconclusive: 39.8 µM [activator, single point] | – |
| CCN1CCN(C(=O)c2ccc3c(c2)N(Cc2ccccc2F)C(=O)c2ccccc2S3=O)CC1 (stereo not drawn) | – | inactive: 9.43% |
| O=c1c2ccccc2[nH]c(=S)n1CCC1=CCCCC1 | inconclusive: 39.8 µM [inhibitor, single point] | – |
| C=CC1=C(C)C2=Cc3c(C=C)c(C)c4[n]3[Sn+2][n]3c(c(C)c(CCC(=O)O)c3=CC3=NC(=C4)C(C)=C3CCC(=O)O)=CC1=N2 | inconclusive: 20 µM [activator, single point] | – |
| O=C(NC1CCCCCC1)C1c2ccccc2C(=O)N1Cc1ccccc1Cl (stereo not drawn) | – | inactive: -11% |
| Cc1ccc(C(=O)CNc2ccc(C)c(Cl)c2)cc1 | inconclusive: 39.8 µM [inhibitor, single point] | – |

| Structure (SMILES) | Potency | max response, negative = inhibition |
| --- | --- | --- |
| CC(C)(C)S(=O)(=O)c1cnc2c(-c3ccc(Cl)cc3)cnn2c1N | inconclusive: 31.6 µM [inhibitor, single point] | – |
| CCN1C(=O)c2ccccc2S(=O)(=O)c2ccc(C(=O)NCc3ccccc3Cl)cc21 | – | inactive: -14.6% |
| COC(=O)c1cc(OC)c(OC)cc1NC(=O)Cn1nnc(-c2ccccc2Cl)n1 | inconclusive: 31.6 µM [activator, partial curve] | – |
| CCCNC(=O)CSc1nnc(-c2ccccc2Br)n1-c1cccc(C(F)(F)F)c1 | inconclusive: 39.8 µM [activator, single point] | – |
| COc1cccc(C(=O)CN2CCN(S(=O)(=O)c3cccc([N+](=O)[O-])c3)CC2)c1 | inconclusive: 12.6 µM [inhibitor, partial curve] | – |
| COc1ccc(CNC(=O)COC(=O)c2cccnc2Nc2cccc(C(F)(F)F)c2)cc1 | inconclusive: 31.6 µM [inhibitor, single point] | – |
| O=C(c1ccco1)[C@@H]1[C@@H]2C(=O)N(c3ccc(F)cc3)C(=O)[C@@H]2C2c3ccccc3C=CN21 (stereo partly drawn) | – | inactive: -8.13% |
| Cc1cccc(CC(=O)NCCc2csc(-c3ccc(C(F)(F)F)cc3)n2)c1 | inconclusive: 39.8 µM [activator, single point] | – |
| CC(=O)N[C@H](c1ccccc1)[C@@]1(C)C[C@@H]1[C@@H](C)C(=O)Nc1ccc2ccccc2c1 | – | inactive: -3.54% |
| CCn1c(CC(=O)Nc2ccc(C)cc2)nnc1SCC(=O)N1CCN(c2ccccc2)CC1 | inconclusive: 31.6 µM [activator, single point] | – |
| CN(C)c1ccc(/C=N/n2c(COc3ccccc3)n[nH]c2=S)cc1 | inconclusive: 31.6 µM [inhibitor, single point] | – |
| N#Cc1c(Cl)nc(N/N=C/c2ccccc2)c(Cl)c1Cl | inconclusive: 39.8 µM [inhibitor, single point] | – |
| Cc1cccc2c1-c1sc(C(=O)N3CCN(c4cccc(Cl)c4)CC3)cc1CO2 | inconclusive: 31.6 µM [inhibitor, single point] | – |
| COc1ccc(C2C3=C(N=C4SCC(=O)N42)c2ccccc2CC3)cc1OC (stereo not drawn) | inconclusive: 39.8 µM [activator, single point] | – |
| Cc1ccc(-c2ccc(CCC(=O)O)n2CC(=O)O)cc1 | inconclusive: 39.8 µM [activator, single point] | – |
| CN1[C@H](CC(=O)c2ccccc2)CCC[C@H]1C[C@H](O)c1ccccc1 | – | inactive: 2.88% |
| COc1ccc(-c2csc(N(CC3CCCO3)C(=O)c3ccc(C)cc3)n2)cc1 (stereo not drawn) | active: 20 µM | – |
| COc1ccc(C2=NOC(C(=O)N3CCN(c4ccccc4OC)CC3)C2)cc1 (stereo not drawn) | inconclusive: 39.8 µM [activator, single point] | – |
| COC(=O)Cn1c(=NC(=O)c2sc3ccccc3c2Cl)sc2cc(S(N)(=O)=O)ccc21 | – | inactive: -17.6% |
| Cc1ccnc(NC(=O)c2c(O)c3ccccc3n(C)c2=O)c1 | inconclusive: 25.1 µM [activator, partial curve] | – |
| Cc1nn(C)c(-c2n[nH]c(=S)n2Cc2ccco2)c1Cl | – | inactive: 5.67% |

| Structure (SMILES) | Potency | max response, negative = inhibition |
| --- | --- | --- |
| Cc1nc(C(=O)Nc2cccc(Cl)c2)nn1-c1cc(OC(C)C)c(Cl)cc1Cl | inconclusive: 39.8 µM [inhibitor, single point] | – |
| CC(C)=CCC[C@](C)(O[C@@H]1O[C@H](CO)[C@@H](O)[C@H](O)[C@H]1O)[C@H]1CC[C@]2(C)[C@@H]1[C@H](O)C[C@@H]1[C@@]3(C)CC[C@H](O[C@@H]4O[C@H](CO)[C@@H](O)[C@H](O)[C@H]4O[C@@H]4O[C@H](CO)[C@@H](O)[C@H](O)[C@H]4O)C(C)(C)[C@@H]3[C@@H](O)C[C@]12C | inconclusive: 7.08 µM [activator, full curve] | – |
| COc1ccccc1NC(=O)C1CCN(S(=O)(=O)c2cn(C)cn2)CC1 | – | inactive: 1.59% |
| COc1ccccc1-c1cc(NC(=O)COc2ccc(C)c(C)c2)n(-c2ccccc2)n1 | inconclusive: 15.8 µM [inhibitor, single point] | – |
| Cc1cccc(N(C)S(=O)(=O)c2c(C(=O)N3CCCCCC3)c(C)n(C)c2C)c1 | inconclusive: 39.8 µM [activator, single point] | – |
| Cc1ccc(Cl)cc1-n1ncc2c(N3CCC(C)CC3)ncnc21 | – | inactive: 11% |
| O=[N+]([O-])c1ccc(NCCO)c(OCCO)c1 | – | inactive: -3.31% |
| C/C(=N\Nc1ccc([N+](=O)[O-])cc1[N+](=O)[O-])C(C)(C)C(C(=O)O)C(=O)O | inconclusive: 3.98 µM [inhibitor, full curve, poor fit] | – |
| Cc1cc(=O)[nH]c2nnc(SCc3ccc(Cl)cc3)n12 | inconclusive: 39.8 µM [activator, single point] | – |
| CCOc1ccc(NC(=O)CN2C(C(=O)OC)=C(c3ccccc3)c3cc(Cl)ccc3S2(=O)=O)cc1 | – | inactive: -4.1% |
| COc1ccc(C2=CC(c3ccc(Cl)cc3)n3cnnc3N2)cc1OC (stereo not drawn) | inconclusive: 39.8 µM [activator, single point] | – |
| COc1ccccc1/C=C/C(=O)Nc1ccc2c(c1)CCC2 | inconclusive: 31.6 µM [inhibitor, single point] | – |
| CCn1c(C)nc2cc(C(=O)NNC(=S)Nc3ccccc3Cl)ccc21 | – | inactive: -6% |
| CCCC1(C(=O)OCC)NC(c2ccc(OC)cc2OC)C2C(=O)N(c3ccccc3)C(=O)C21 (stereo not drawn) | inconclusive: 39.8 µM [activator, single point] | – |
| Cc1cc(/C=N\NC(=O)CC(=O)NC2CCCCC2)c(C)n1-c1cccc(Cl)c1Cl | inconclusive: 31.6 µM [activator, single point] | – |
| CN1CCN(c2cc(N3CCc4ccccc4C3)c(F)cc2[N+](=O)[O-])CC1 | – | inactive: 12% |
| CCOC(=O)c1ccccc1NC(=O)CSc1cn(CC(=O)N2CCOCC2)c2ccccc12 | – | inactive: 12.7% |
| CCOc1ccc(Nc2nc(C)c(NC(=O)c3cccc(OC)c3)c(Nc3ccc(OCC)cc3)n2)cc1 | inconclusive: 39.8 µM [inhibitor, single point] | – |
| CC1(C)CC(=O)C(/C=N/c2ccccn2)=C(O)C1 | – | inactive: -11.6% |
| Cn1c(=O)[nH]c(=O)c2c1nc1n2CCN1c1ccccc1 | – | inactive: 9.92% |
| Cc1cc(N2CCN(S(=O)(=O)c3ccc4c(c3)OCCO4)CC2)n2ncnc2n1 | inconclusive: 39.8 µM [activator, single point] | – |
